The campaign covered roughly 43,000 compounds. About 200 (0.47%) were called active. Roughly 12% stayed inconclusive and do not appear here. The call rests on the fitted dose curve; in most records, active means well fitted cell-killing curve with a large enough effect; inconclusive means small, poorly fitted or top-dose-only effect, or effect the other way; inactive means flat fitted curve, though single readings scatter. The list shows a part of the results.
Experiment: Cell viability qHTS assay in S16 Pmp22-F2sN cells; further: nearly all actives have a fitted effect of over 65% in size
Conditions: S16 Pmp22-F2sN Schwann cells (luciferase reporters placed in the Pmp22 gene) viability, CellTiter-Glo, 24 h; series mostly up to 57.5 µM; activity change, negative = cytotoxicity: at the top concentration
Procedure, shortened: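 Seed 500-1,000 S16 Pmp22-F2sN cells per well in phenol-red-free DMEM with 10% heat-inactivated FBS; pin-add 23 nL compound; incubate 24 h at 37C; add CellTiter-Glo, wait 15 min protected from light; read luminescence.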
On the % scale 0 is the no-effect control and ±100 the full control effect.

Structure (SMILES) | activity change, negative = cytotoxicity
COC(=O)Cn1c(=O)c2c(nc3n2CCN3c2cccc(C)c2)n(C)c1=O | inactive: 6.46%
CCN(CC)S(=O)(=O)c1ccc(NC(=O)[C@H](CSCc2ccccc2)N2Cc3ccccc3C2=O)cc1 | inactive: -13.5%
COc1ccc2nc3sc(C(=O)Nc4ccccc4F)cc3cc2c1 | inactive: 3.89%
COc1ccc(NC(=O)CCCc2nc(-c3ccco3)no2)c(OC)c1 | inactive: -3.34%
CCOc1ccc(NS(=O)(=O)c2ccc3[nH]cc(C(=O)NCc4ccco4)c(=O)c3c2)cc1 | inactive: -12.2%
COc1cccc(OC(=O)CSc2nnc(-c3ccccc3OC)o2)c1 | inactive: 7.16%
COc1ccc(Cl)cc1NC(=O)c1cc2nc(-c3ccc4c(c3)OCO4)cc(C(F)(F)F)n2n1 | inactive: -4.04%
COc1ccc(C(=O)O)cc1Nc1nc2ccc(C)cc2n2cnnc12 | inactive: 14.1%
Cc1cccc(NC(=O)c2sc3nc4n(c(=O)c3c2C)N=C(c2ccc(F)cc2)CS4)c1C | inactive: 0.665%
Cc1ccc(C)c(N2CCN(c3nc4ccccc4c4nc(CCn5nc(C)cc5C)nn34)CC2)c1 | inactive: 0.856%
O=C(CSc1nc(-c2ccc(Cl)cc2)nc2c1Cc1ccccc1O2)N1CCCCC1 | inactive: 14.3%
Cc1cccc(C)c1-n1ncc(C(=O)Nc2ccc3c(c2)OCCO3)c1C1CCN(C(=O)OC(C)(C)C)CC1 | inactive: -20.4%
CCOCCOC(=O)c1ccc(NC(=O)/C=C/c2ccc(OC)c(OC)c2)cc1 | inactive: 0.471%
O=C(CSc1ncc2c(n1)-c1ccccc1N(Cc1ccc(F)cc1)S2(=O)=O)c1ccc(Cl)cc1 | inactive: -1.36%
CCc1cc2c(cc3c(=O)n(CC(=O)N4CCN(c5cc(Cl)ccc5C)CC4)ncn32)s1 | inactive: 13.5%
Cc1ccc(S(=O)(=O)c2cn(C)c3cc(N4CCN(C)CC4)c(F)cc3c2=O)cc1 | inactive: 1.37%
COc1ccccc1N1CCN(S(=O)(=O)c2c(C)sc3ncn(CC(=O)N(C)c4ccc(C(C)C)cc4)c(=O)c23)CC1 | inactive: -8.72%
CNS(=O)(=O)c1ccc(OC)c(-c2nnc3c4ccccc4c(C)nn23)c1 | inactive: -3.87%
Cc1ccc(NCc2cccn2-c2nnc(N3CCC(C(=O)NCc4ccc(OC(C)C)cc4)CC3)s2)cc1 | inactive: -18.3%
CC(C)OCCCN(Cc1ccco1)C(=O)c1cc2c(s1)-c1ccccc1OC2 | inactive: 11.1%

Structure (SMILES) | activity change, negative = cytotoxicity
CCN(CC)C(=O)Cn1cc(SCC(=O)Nc2cccc(C)c2)c2ccccc21 | inactive: 8.05%
COCc1cc(C)n(CC(=O)Nc2ccc(NC(C)=O)cc2)c(=O)c1C#N | inactive: -6.81%
CC(C)Oc1ccc(CNC(=O)C2CCN(C(=O)c3sccc3-n3cccc3)CC2)cc1 | inactive: -2.02%
COc1ccccc1CNC(=O)CN1C(=O)CSc2ccc(S(=O)(=O)N3CCCC3)cc21 | inactive: 5.03%
Cc1ccc(Cl)cc1NC(=O)N1CCN(C)c2ncccc21 | inactive: 14.5%
Cc1cccc(C(=O)N2CCc3cc(CNC(=O)CCc4ccccc4)ccc32)c1 | inactive: -18.7%
COc1ccccc1-c1noc(-c2ccc(N3CCN(c4ccccc4)CC3)c([N+](=O)[O-])c2)n1 | inactive: -10.4%
CC1=C(C#N)C(NC(=O)c2cccc(Cl)c2)(C(F)(F)F)C(=O)N1 (stereo not given) | inactive: 0.962%
Cc1cn2c(=O)cc(COc3ccc(NC(=O)c4cccc(F)c4)cc3)nc2s1 | inactive: 11.5%
Cc1nn(CCCC(=O)Nc2ccccc2C(F)(F)F)c(=O)c2c1sc1ccccc12 | inactive: 5.09%
CN(C)CCN(Cc1ccco1)S(=O)(=O)c1cc2c(cc1Cl)NC(=O)CO2 | inactive: 25.2%
COc1ccccc1CCNC(=O)CCc1c(C)c2cc3c(C)coc3c(C)c2oc1=O | inactive: 0.754%
Cn1c(=O)n(C)c2cc(NS(=O)(=O)c3ccccc3)c(NCc3ccccc3)cc21 | inactive: 1.03%
O=C(NCCO)C(=O)Nc1c2c(nn1-c1ccc(F)cc1)CSC2 | inactive: 8.56%
CCC(Sc1nnc(C)n2c1cc1occc12)C(=O)Nc1ccccc1F (stereo not given) | inactive: -8.59%
CC(=O)Nc1cccc(NC(=O)Cn2cnc3c2c(=O)n(C)c(=O)n3C)c1 | inactive: 11.1%
O=C(Nc1ccc(C(=O)OCc2cc(=O)n3nc(C4CC4)sc3n2)cc1)c1ccc(F)cc1 | inactive: 3.2%
Cc1nc(N2CCCC2)c2c(C(=O)Nc3cccc(C)c3C)c(C)oc2n1 | inactive: 2.32%
CCN(CC)c1ccc(NC(=O)C(Cc2ccccc2)NS(=O)(=O)c2ccc(Br)s2)c(C)c1 (stereo not given) | inactive: -3.93%
COc1ccccc1N1CCN(C(=O)Cn2ncc3c(=O)oc4ccccc4c32)CC1 | inactive: 19%

Structure (SMILES) | activity change, negative = cytotoxicity
COc1ccc(S(=O)(=O)N(CC(=O)NCc2ccccc2OC)c2ccc(C)cc2)cc1 | inactive: -14.4%
CCOc1ccccc1N(C)C(=O)Cn1cnc2sc(C)c(S(=O)(=O)N3CCC(C)CC3)c2c1=O | inactive: -1.15%
COc1cc(OC)c(NC(=O)COCc2cc(-c3cccs3)on2)cc1Cl | inactive: 4.23%
CCOc1cc(-c2nc(-c3ccc(-c4ccc(C)cc4)nc3OC)no2)cc(OCC)c1OCC | inactive: 6.96%
COc1ccc(Cl)cc1NC(=O)Cn1c2ncccc2c(=O)n1-c1ccc(C)c(C)c1 | inactive: -1.49%
Cc1cc(C)cc(N(CC(=O)Nc2cccc(C)c2C)S(=O)(=O)c2c(C)[nH]c(=O)[nH]c2=O)c1 | inactive: 4.28%
COc1ccc(C2C=C(c3ccccc3)Nc3nc(NC(=O)c4ccc(C)cc4)nn32)cc1 (stereo not given) | inactive: -28.2%
COc1ccc2c(CNCc3ccc(C)o3)c(C(=O)O)n(Cc3ccccc3)c2c1 | inactive: 1.99%
Cc1ccc(NC(=O)Nc2nnc(N(C)Cc3ccccc3)s2)cc1 | inactive: 6.36%
Cc1cc(NS(=O)(=O)c2ccc(NC(=O)COc3ccc(Cl)cc3)cc2)nc(C)n1 | inactive: 1.37%
Cc1ccc(-n2nc3c(=O)n(CC(=O)Nc4ccccc4F)nc(C)c3c2C)c(C)c1 | inactive: -22.7%
COC(=O)c1ccc(Cl)cc1NC(=O)N1CC(C)Oc2ccccc21 (stereo not given) | inactive: 1.81%
CCOC(=O)c1ccc(NC(=O)c2cc3cc(C)ccc3n2C)cc1 | inactive: 3.42%
Cc1cc(C)c2oc(C(=O)N(Cc3ccc(F)cc3)C3CCS(=O)(=O)C3)cc(=O)c2c1 (stereo not given) | inactive: 19.9%
CN(C(=O)c1cc(-c2ccccc2O)on1)c1ccccc1 | inactive: -8.08%
COc1ccc(S(=O)(=O)N2CCC(c3ccncc3)CC2)cc1Cl | inactive: -16.7%
CCCCOc1c(Cl)cc(C(=O)N(Cc2ccc(C)o2)C2CCS(=O)(=O)C2)cc1Cl (stereo not given) | inactive: -16.8%
COc1ccc(C(CNC(=O)COc2ccc(C)cc2)N2CCCCC2)cc1 (stereo not given) | inactive: -1.17%
COc1ccccc1NC(=O)c1c(NCc2sccc2C)sc2c1CCCCC2 | inactive: -19.4%
CN(C(=O)Cn1c(=O)n(CCCS(=O)(=O)C2CCCCC2)c(=O)c2ccccc21)c1ccccc1 | inactive: 11.9%

Source: PubChem BioAssay AID1508642 (National Center for Advancing Translational Sciences (NCATS), 2021)
